Reference: patent US20240166739A1 (KISOJI BIOTECHNOLOGY, published 2024)

Key:
[1] = target: T1, human CD47 on cells (HEK293T cells; primary human T cells and other blood cells) (human, UniProt Q08722); assay: Flow cytometry on HEK293T against HEK293T-CD47KO cells (FIG. 13)
T1 construct: whole, on cells

[2] = target: T2, recombinant human CD47 protein (human, UniProt Q08722 part only); assay: ELISA on recombinant human CD47, stressed against unstressed batches (FIG. 25C, FIG. 26C)
T2 construct: Bought protein; also called human recombinant CD47 protein; CD47 recombinant protein
Procedure: (§1) The binding of binding agents comprising anti-PD-1 and -CD47 antigen binding domain to recombinant human or cynomolgous PD-1 (Cedarlane, Cat. No. HPLC-10377-H08H-100) or recombinant human or cynomolgous CD47 (Cedarlane, Cat. No. 12283-H08H-200 and 90869-C08H) was assessed by ELISA (FIG. 9A, FIG. 9B, FIG. 9C, FIG. 9D, FIG. 22, FIG. 23). […] The monoclonal anti-CD47 antibody (clone B6H12) was used as a positive control in CD47 binding assays (Biolegend, Cat. No. 401401).
(§2) Briefly, recombinant proteins were coated on 96-well plates. Plates were covered and left at 4° C. overnight. The next day, plates were washed once with PBS and blocked with blocking buffer for 1 hour at room temperature. Binding agents were tested at the indicated concentration, diluted in the blocking buffer, and incubated for 1 hour at 37° C. After incubation, plates were washed three times with washing buffer. Plates were incubated with anti-human-Fc-HRP (Sigma-Aldrich, Cat. No. APi 13P) diluted at 1:5000 for 1 hour at room temperature, then washed three times with PBS-T washing buffer. The signal was developed with SuperSignal™ ELISA Pico Chemiluminescent Substrate (Thermofisher, Cat. No. 37069). The plates were read on a SpectraMax™ i3x Multi-Mode Microplate Reader (Molecular Devices).

[3] = target: T3, recombinant human PD-1 protein (human, UniProt Q15116 part only); assay: ELISA on recombinant human PD-1, stressed against unstressed batches (FIG. 25B, FIG. 26B)
T3 construct: Bought protein; also called human recombinant PD1 protein; PD-1 recombinant protein
Procedure: as §1, §2

[4] = target: T1, human CD47 on cells (HEK293T cells; …); assay: Flow cytometry on primary human T cells (FIG. 14)
[5] = target: T2, recombinant human CD47 protein; assay: ELISA on coated recombinant human CD47, 1/5 dilutions from 50 nM (FIG. 9C)
Procedure: as §1, §2

[6] = target: T2, recombinant human CD47 protein; assay: ELISA on coated recombinant human CD47
Procedure: as §1, §2

T3 sequence (Q15116 25-167 limits assumed): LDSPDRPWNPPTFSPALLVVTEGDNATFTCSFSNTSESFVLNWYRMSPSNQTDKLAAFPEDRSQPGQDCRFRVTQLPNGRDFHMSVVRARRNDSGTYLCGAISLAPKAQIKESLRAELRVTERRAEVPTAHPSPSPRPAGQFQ

B1: KC020 (trispecific binding agent: anti-D2, anti-PD-1 and anti-CD47 antigen binding domains) (Fc fusion)
chain: QVQLQESGGGLVQAGGSLRLSCAASEIIFSITAMNWYRQAPGKQRELVAGISSSGKITYQDSVKGRFTISKDNAKNTLYLQMNSLKPEDTAVYYCNTWAGARDAIWGQGTQVTVSS[letters of human IgG1 Fc left out]APAPAPAPAPKAQVQLQESGGGWVQPGGSLRLSCVASGFTFSRSSMSWHRQAPGKERDLVAIISSSGIITHYSDSVKGRFTISRDNAKDTVYLQMNSLKPEDTAVYVCNAVLDDDSGDYWGQGTQVTVSSGGGGSGGGGSGGGGSQVQLQESGGGLVQPGGSLRLSCAASRFDFSVNDIRWYRQAPGNERELVARITGGGRTDYADSVKGRFTISRDNAKNTVYLQMNNLKPEDTAVYYCWGRGYWGQGTQVTVSS
notes: KC001 VHH - IgG1 hinge-CH2-CH3 - rigid linker - KC009 VHH - (G4S)3 - KC010 VHH; dimer of two identical chains; may comprise a His-tag or not
[1]
  binding result: binds
[2]
  binding result: binds
[3]
  binding result: binds

B2: KC040 (binding agent comprising anti-D2 and anti-CD47 antigen binding domains; DR2; HEWL; CD47) (Fc fusion)
chain: QVQLQESGGGLVQAGGSLRLSCAASEIIFSITAMNWYRQAPGKQRELVAGISSSGKITYQDSVKGRFTISKDNAKNTLYLQMNSLKPEDTAVYYCNTWAGARDAIWGQGTQVTVSS[letters of human IgG1 Fc left out]APAPAPAPAPKADVQLVESGGGSVQAGGSLRLSCAASGSTDSIEYMTWFRQAPGKAREGVAALYTHTGNTYYTDSVKGRFTISQDKAKNMAYLRMDSVKSEDTAIYTCGATRKYVPVRFALDQSSYDYWGQGTQVTVSSGGGGSGGGGSGGGGSQVQLQESGGGLVQPGGSLRLSCAASRFDFSVNDIRWYRQAPGNERELVARITGGGRTDYADSVKGRFTISRDNAKNTVYLQMNNLKPEDTAVYYCWGRGYWGQGTQVTVSS
notes: KC001 VHH - IgG1 hinge-CH2-CH3 - rigid linker - anti-HEWL VHH - (G4S)3 - KC010 anti-CD47 VHH; expressed as dimer; may comprise a His-tag or not
[4]
  binding result: binds

B3: KC015 (CD47-specific binding agent, VHH-hinge-CH2-CH3) (Fc fusion)
chain: QVQLQESGGGLVQPGGSLRLSCAASRFDFSVNDIRWYRQAPGNERELVARITGGGRTDYADSVKGRFTISRDNAKNTVYLQMNNLKPEDTAVYYCWGRGYWGQGTQVTVSS[letters of human IgG1 Fc left out]
notes: VHH KC010 fused to human IgG1 hinge-CH2-CH3; expressed as dimer; may comprise a His-tag or not
[5]
  binding result: binds

B4: KC016 (HEWL-specific negative control, VHH-hinge-CH2-CH3) (Fc fusion)
chain: DVQLVESGGGSVQAGGSLRLSCAASGSTDSIEYMTWFRQAPGKAREGVAALYTHTGNTYYTDSVKGRFTISQDKAKNMAYLRMDSVKSEDTAIYTCGATRKYVPVRFALDQSSYDYWGQGTQVTVSS[letters of human IgG1 Fc left out]
notes: Anti-HEWL VHH fused to human IgG1 hinge-CH2-CH3; negative control for KC015
[6]
  binding result: no binding
